Laboratory results: the supplement of paper PMC11417369
Some of the results follow.

System: PfAP2-HC AP2 domain (GST-tagged)
Assay: gcPBM binding intensity (ln(normalized median fluorescence intensity)); higher = stronger DNA binding
Procedure, shortened: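 Using an Agilent 4 × 180k array, primer-extended double-stranded 36-bp intergenic genomic probes and negative controls were exposed for 1 h to GST-fused P. falciparum DNA-binding domains expressed in E. coli. Binding was carried out in 1× PBS with 1% milk, 0.2 mg/ml BSA, 0.5% salmon testes DNA and 0.03% Triton X-100, and protein was detected with Alexa488 anti-GST antibody and a 488 nm scan. Binding intensity is the highest Masliner-normalised natural-log median intensity across replicate spots of either probe orientation.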

Compared with “ATATTTATATTTTCATGTACGTATTTTTATATATAT [XGTACX_site8478]”, “ATTTTTATTAGTTATTGTACTTATTATTTATTAATT [XGTACX_site2568]” is lower in “gcPBM binding intensity (ln)” value: 9.9 for the first, 9.78 for the second.

Going from “TATAGATATATACGGTGTACATACATAAAAAAAAAA [XGTACX_site1648]” to “TATAGTCAACTAGTCACACATATAATTATATATATA [CACACA_site5872]”, the “gcPBM binding intensity (ln)” value falls from 9.72 to 9.64.

First: TATAAAGAAATCATTACACACAAATAAATACATACA [CACACA_site2675]
Second: ATATATATACATATAACACACACATATATATATATA [CACACA_site8827]
The “gcPBM binding intensity (ln)” value of the first is higher: 10.1 for the first, 10 for the second.

Compared with “TTGTATTTATTTATGGGAGGATTATAATCATTGTAG [GTGCAC_negctrl_site268]”, “TAATTCACATTTTATACACACATTCGAACCTTTTTT [CACACA_site3341]” is higher in “gcPBM binding intensity (ln)” value: 9.49 for the first, 9.92 for the second.

Compared with “ATGAAAATTTATATTGCACACATAGGGAATAAAAAA [CACACA_site8667]”, “AAATATATTATATTTAGTACGCATATATAATATGCA [XGTACX_site4835]” is lower in “gcPBM binding intensity (ln)” value: 9.86 for the first, 9.41 for the second.

First: AGTTAATTAATAGGCACACATATATATGTATAAATA [CACACA_site523]
Second: GTAAGAATATTTATAAATGTATAATTTGTATTATTT [GTGCAC_negctrl_site667]
The “gcPBM binding intensity (ln)” value of the first is higher: 9.8 for the first, 9.59 for the second.

Compared with “TAAAATATCATAGATAGTACATATAACGTTTTATAT [XGTACX_site5666]”, “ATCGAAATTTTAGAATATATATGATGTTACTTAAGT [GTGCAC_negctrl_site611]” is lower in “gcPBM binding intensity (ln)” value: 9.68 for the first, 9.5 for the second.

Going from “CATGACATAAAAAATATACACACTATAATATATATA [CACACA_site1402]” to “TATATATCTATATTTACACACAGTTACTATGTAGAT [CACACA_site7532]”, the “gcPBM binding intensity (ln)” value falls from 9.87 to 9.85.

First: GTTAAACTTAATATCGGTACACACACAAGATAAGAA [XGTACX_site1660]
Second: ATAATATGTATAATCACACATTTTTCTTTTAAGACA [CACACA_site5297]
The “gcPBM binding intensity (ln)” value of the first is higher: 10.7 for the first, 9.59 for the second.

First: ACCATATAAATAAACACACACACACCCATATATATA [CACACA_site2321]
Second: GGTTCATTAAAGTGTACACATAAATACCGTAACATT [CACACA_site6002]
The “gcPBM binding intensity (ln)” value of the first is higher: 10.6 for the first, 9.69 for the second.

First: CTAAGGTATGATTAATCACACACATAAATATATATA [CACACA_site8847]
Second: GTGGCTACTATATATTGTACGATATTATATATATAC [XGTACX_site8376]
The “gcPBM binding intensity (ln)” value of the first is higher: 10.1 for the first, 9.84 for the second.

Going from “AGAATAAGAATTATTAGTACTTATAAATATTATATT [XGTACX_site7228]” to “TAATTTAAAATATATAGTACACACGTGAACACAAAT [XGTACX_site792]”, the “gcPBM binding intensity (ln)” value rises from 9.43 to 10.

Compared with “CTATTACATTAAATGTGTACATATATATATATATAT [XGTACX_site5233]”, “GTAAATACACATATGTGTACATATATATATATATAT [XGTACX_site3696]” is higher in “gcPBM binding intensity (ln)” value: 9.82 for the first, 9.89 for the second.

Compared with “TTCTTTAAAAAATTCGATAAAAAAAAAAAAAGAAAA [CACACA_negctrl_site242]”, “TATATACTCATGCGCACACACAAGTGGGAAATTTGG [CACACA_site5056]” is higher in “gcPBM binding intensity (ln)” value: 9.31 for the first, 10.2 for the second.

First: ATATACATATATATTGCATGCAGAGAGTATTTATAA [TGCATGCA_site646]
Second: ATATATATATATATTGTGCACAAAAAAAAATAAGCA
The “gcPBM binding intensity (ln)” value of the first is lower: 9.71 for the first, 9.95 for the second.

Going from “ATATATTATAGGTACACACACATATAAGGGATTATA [CACACA_site6154]” to “GGAAAGACAGTTCACAGTACCCAGGAAATCTACGGA [XGTACX_site1996]”, the “gcPBM binding intensity (ln)” value falls from 10.4 to 9.62.

First: CTTTGTAGTATATTAACACACAACTGTTTATAATAT [CACACA_site6038]
Second: TATATATATATTTAGTGTACTTAAAAAAAATAATAA [XGTACX_site5454]
The “gcPBM binding intensity (ln)” value of the first is higher: 9.92 for the first, 9.57 for the second.

First: ATAATAATAAAATATATATACAAAGGTGAAATTATA [TGCATGCA_negctrl_site197]
Second: TATTTTTTTTTCCATTGTACATTTTTGATATTTTTC [XGTACX_site744]
The “gcPBM binding intensity (ln)” value of the first is higher: 9.81 for the first, 9.8 for the second.

Going from “TTATTAAATATGTACACACGTACATTTTATAAATGA [CACACA_site2387]” to “GGAAAATCTAATCATTTAATATTTATTTATCTAATT [GTGCAC_negctrl_site553]”, the “gcPBM binding intensity (ln)” value falls from 9.56 to 9.34.

First: ATTTTATATAATACATGTACAAAAGTTTAAATTTAT [XGTACX_site6196]
Second: TATAAATACTAAAAAAGTACAAAATTTCATAAAAAA [XGTACX_site2709]
The “gcPBM binding intensity (ln)” value of the first is higher: 9.73 for the first, 9.61 for the second.

Compared with “TTCTTTATTTATCATTATAAGAAGAGTTGATTTGTT [XGTACX_negctrl_site555]”, “TTATAATATAGCAATTATTAAATAGGATCAAATGAA [CACACA_negctrl_site632]” is higher in “gcPBM binding intensity (ln)” value: 9.44 for the first, 9.52 for the second.

First: AACAAATTTATCCAAAGTACAAAATATCATTTCTTA [XGTACX_site4543]
Second: AACAACATGTAGACGCGTACCAACATCAGATCCTAT [XGTACX_site4071]
The “gcPBM binding intensity (ln)” value of the first is lower: 9.56 for the first, 9.86 for the second.

Compared with “ATTATAATTATATATGCATGTAGCATTTTCTATTTT [TGCATGCA_site66]”, “ATATAAGAAATAAAGAAAAATGTGTTTTTTTTTTTT [XGTACX_negctrl_site396]” is lower in “gcPBM binding intensity (ln)” value: 9.72 for the first, 9.6 for the second.

First: AGAGCTGTTTTTTATGCATGTAGTTTAGAAAATACA [TGCATGCA_site257]
Second: TTTATCTTATTTTTATGTACTTATTTTATAAAAAAA [XGTACX_site7730]
The “gcPBM binding intensity (ln)” value of the first is lower: 9.31 for the first, 9.42 for the second.

First: TTTTTCCTAACATATTATATACTTGAATATTTATTA [CACACA_negctrl_site156]
Second: AAACAAATATTTATCACAATGTCATTTTGTTAACAT [GTGCAC_negctrl_site171]
The “gcPBM binding intensity (ln)” value of the first is lower: 9.62 for the first, 9.63 for the second.

First: TATTTGTAAATTATTTGGGTGTGTAGGGGATATTCT [XGTACX_negctrl_site204]
Second: CGTTCATATTATTATAGTACATATTATTATAGTTTT [XGTACX_site1550]
The “gcPBM binding intensity (ln)” value of the first is lower: 9.8 for the first, 9.85 for the second.

Compared with “TTTTTTTTTTTATTTGCATGCGGTGTTCATAATATT [TGCATGCA_site199]”, “TTGGTGGATAAATTTACACACAATAACTTTCGTTCA [CACACA_site6358]” is higher in “gcPBM binding intensity (ln)” value: 9.63 for the first, 9.74 for the second.

First: AGAAGAAAAGTAAAAAGTACATTATTCATGGCCTAT [XGTACX_site5601]
Second: TTTGAGATAAAAGACTGTACTTAGAATGTATAAAAA [XGTACX_site203]
The “gcPBM binding intensity (ln)” value of the first is higher: 9.6 for the first, 9.51 for the second.

Going from “AAAAAAAAAAAAAACTGTACCAAAAAGAATATATAC [XGTACX_site8345]” to “TTTAATTTTATATAGAGTACAAAAAAATAGAAAGAT [XGTACX_site3870]”, the “gcPBM binding intensity (ln)” value rises from 9.71 to 9.8.

Compared with “ATATATATATATATATGTACATAAATATTTTAAAAT [XGTACX_site4980]”, “ATATATATATATATATGTACACATATACGCTTTTTC [XGTACX_site3838]” is lower in “gcPBM binding intensity (ln)” value: 9.85 for the first, 9.65 for the second.

Going from “TTGTTTCTACAATTTAATAAAATACGTTTTCAAAAA [XGTACX_negctrl_site377]” to “TACTCCTTAAATATATGTAAAGGAAGAAAAAAAAAA [XGTACX_negctrl_site306]”, the “gcPBM binding intensity (ln)” value rises from 9.05 to 9.43.

Compared with “ACAATAAAAATAAAAAGTACAAATAAAAAAAATAAA [XGTACX_site6718]”, “TATAATAATACGTATTGTACTATTAGGTTAATTCGT [XGTACX_site264]” is lower in “gcPBM binding intensity (ln)” value: 9.82 for the first, 9.68 for the second.

Compared with “TTTTCTTGTAAATTACGTACGAATGTGTAGAGAAAT [XGTACX_site1339]”, “TCTATAAAGGAATATACACACATATATATATATATA [CACACA_site410]” is higher in “gcPBM binding intensity (ln)” value: 9.47 for the first, 9.66 for the second.

Going from “ACTTGTAAGAAACACACACACACACCCATATATATA [CACACA_site796]” to “AAGTAAAATAAGTATACACACATAAATATATATATA [CACACA_site685]”, the “gcPBM binding intensity (ln)” value falls from 11.5 to 10.1.

Going from “TAAAATATAAAACACACACACATATATATATATATT [CACACA_site224]” to “ATCCTCTTTACAATATGTACATAAATATATATTTAT [XGTACX_site8001]”, the “gcPBM binding intensity (ln)” value falls from 10.3 to 10.2.

First: TATATATATAAATACACACACATATATATATATATA [CACACA_site4867]
Second: TATATATTTTTATTATGTACATATTAACAATGTGTT [XGTACX_site879]
The “gcPBM binding intensity (ln)” value of the first is higher: 9.84 for the first, 9.77 for the second.

Going from “TATTCCCTTCTTCCTTCTGTTTTTGATATTAAAGGG [GTGCAC_negctrl_site270]” to “ATACTTTATTCGTTAGCACACAATTCAAGTTGATTC [CACACA_site1123]”, the “gcPBM binding intensity (ln)” value rises from 9.51 to 9.86.

Going from “AAGATACCCCAAAATTGTACATATTAAAATAATAAA [XGTACX_site3603]” to “ATAAAATAAACATAAATAAACATAAATAAACAAAAA [CACACA_negctrl_site1270]”, the “gcPBM binding intensity (ln)” value rises from 9.52 to 9.96.

First: AGGTATATATACATATGTACGTATATATATATATAT [XGTACX_site5115]
Second: TTTAAAAATAAAAGTACACACATAAACATATTACAC [CACACA_site1428]
The “gcPBM binding intensity (ln)” value of the first is higher: 10.3 for the first, 9.97 for the second.

First: TATAATACAACATGCACACATATATATGTGAATCTC [CACACA_site2490]
Second: TTATATAAATTATTTACACACAAACATTTATACTTT [CACACA_site3449]
The “gcPBM binding intensity (ln)” value of the first is higher: 9.95 for the first, 9.91 for the second.

First: TTTCTAATTTATATCACACACATATTTATATAGTAA [CACACA_site6813]
Second: GGCGTATGTGTATATACACACCCACGTATATAAATA [CACACA_site7489]
The “gcPBM binding intensity (ln)” value of the first is higher: 9.83 for the first, 9.67 for the second.

Compared with “TTTCTTTTTTTTTTTTTTTCTTTTTTTTTTTTTTTC [CACACA_negctrl_site1025]”, “GGAATATTTTATGAGTGTACATTTTTTTTTTTTTTT [XGTACX_site2370]” is higher in “gcPBM binding intensity (ln)” value: 9.2 for the first, 9.54 for the second.

Going from ATAATCCAACTTTGAGTGCGTGGTGTTTTTTTTTTC to “AAAAAAAAAAATAAATAAATAAATAAATATATATAT [TGCATGCA_negctrl_site468]”, the “gcPBM binding intensity (ln)” value falls from 10.1 to 9.56.

Going from “TACATACATATATATACACACATATATAATATATAT [CACACA_site388]” to “TATATATACATATACACACATACGTACATACATATA [CACACA_site3585]”, the “gcPBM binding intensity (ln)” value rises from 9.92 to 10.
